# Reference: PubChem BioAssay AID504706 (National Center for Advancing Translational Sciences (NCATS), 2011)
# Out of some 320,000 compounds screened, about 200 (0.062%) were called active. This list was built around the results that the source calls inconclusive (neither active nor inactive); the mix of calls is not that of the screen. The call rests on the fitted dose curve; in most records, active means well fitted activation curve with a large enough effect; inconclusive means small, poorly fitted or top-dose-only effect; inactive means no such curve, though single readings can be large or run the other way. No potency is given beside an inconclusive call; the fits are too rough.
# Assay: qHTS assay for re-activators of p53 using a Luc reporter; further: nearly all actives have a fitted effect of over 45% in size
# Details: H1299 p53-A138V BP100-luciferase reporter, luminescence, 24 h; series mostly up to 92.2 µM
# Outline: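 H1299 (p53-null), stable ts p53-A138V + BP100-Luc; 1000 cells/well, Opti-MEM/10% FBS; cpd 4 pt, 1:5; 24 h, 37 deg C, 5% CO2; detection reagent 10 min RT; luminescence.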
# Potency means the concentration at half of the fitted maximal effect; tags describe the fitted curve by direction and shape.
row,Compound,Potency
1,Cc1cc(C(=O)CN2CCC(C)CC2)c(C)n1-c1ccc(F)cc1,"inconclusive [activator, partial curve, poor fit]"
2,O=S(=O)(Nc1nc(SCc2ccc(Cl)cc2)n[nH]1)c1ccccc1,inactive
3,Clc1ccc2oc(-c3ccccn3)nc2c1,"inconclusive [activator, full curve, poor fit]"
4,Cc1ccc(CNC(=O)CSc2ccsc2[N+](=O)[O-])cc1,"inconclusive [activator, partial curve, poor fit]"
5,O=C(Nc1cnccn1)c1csc2ccccc12,"inconclusive [activator, partial curve, poor fit]"
6,O=C(NC1CCCCCC1)c1ccc[nH]c1=S,inactive
7,CCCc1cc(=O)oc2c3c(c(Cl)cc12)OCN(CCCO)C3,inactive
8,Cc1ccc(C)c(NC(=O)c2ccccc2O)c1,"inconclusive [activator, partial curve, poor fit]"
9,COc1ccc(CSc2nnc(N)s2)cc1F,"inconclusive [activator, partial curve, poor fit]"
10,CC(=O)Nc1ccc(/C=N/Nc2nc3ccccc3s2)cc1,"inconclusive [activator, full curve, poor fit]"
11,Cc1ccc(NC(=O)c2ccc(OCC3CCCO3)cc2)cc1 (stereo not drawn),"inconclusive [activator, partial curve, poor fit]"
12,Cc1ccc(OC(=O)c2cccc([N+](=O)[O-])c2)c(-n2nc3ccccc3n2)c1,"inconclusive [activator, partial curve, poor fit]"
13,O=C(O)C1C2C=CC(C2)C1C(=O)Nc1cccc(C(F)(F)F)c1 (stereo not drawn),"inconclusive [activator, partial curve, poor fit]"
14,Cc1nnc(Oc2ccccc2)c2ccccc12,"inconclusive [activator, partial curve, poor fit]"
15,Nc1ccc(S(=O)(=O)Nc2nc3ccccc3o2)cc1,"inconclusive [activator, single point]"
16,COc1ccc(C2NCCC3(O)CCCCC23)c(OC)c1OC (stereo not drawn),inactive
17,Cc1[nH]c(-c2ccccn2)nc(=S)c1Cl,inactive
18,COc1cccc(C(=O)/C=C/Nc2cccc(O)c2)c1,"inconclusive [activator, full curve, poor fit]"
19,Cc1sc2ncnc(N/N=C/c3ccc(O)cc3)c2c1C,inactive
20,O=C1NC(=O)/C(=C\c2ccc(Br)o2)S1,"inconclusive [activator, full curve, poor fit]"
21,Oc1ccccc1CNc1cnc2ccccc2c1,"inconclusive [activator, partial curve, poor fit]"
22,NC(=O)c1ccc(NC(=O)CSC(=O)c2ccccc2)cc1,inactive
23,CCCC(=O)Nc1cccc(-c2nc3ccccc3o2)c1,inactive

row,Compound,Potency
1,COC(=O)c1ccc2c(c1)c(C#Cc1ccccc1)c(-c1ccccc1)n2C,"inconclusive [activator, partial curve, poor fit]"
2,O=C(NC(=S)Nc1ccc(Cc2ccncc2)cc1)c1ccccc1,"inconclusive [activator, single point]"
3,Cc1ccc(-c2nc3ccccc3s2)cc1NC(=S)NC(=O)/C=C/c1ccco1,"inconclusive [activator, partial curve, poor fit]"
4,CCCC(=O)NC(=S)Nc1ccc(C(C)=O)cc1,"inconclusive [activator, partial curve, poor fit]"
5,COc1ccc(N2COC3c4cccc5cccc(c45)C32)cc1 (stereo not drawn),"inconclusive [activator, partial curve, poor fit]"
6,COc1ccc2c(CC(=O)OCC(=O)Nc3sc4c(c3C#N)CCC(C)C4)coc2c1 (stereo not drawn),"inconclusive [activator, partial curve]"
7,CCN(CC)S(=O)(=O)c1cccc(NC(=O)Nc2cccc(C(F)(F)F)c2)c1,inactive
8,Nc1cc(N)cc(C(=O)OCC(=O)Nc2cc(S(=O)(=O)N3CCCCC3)ccc2Cl)c1,inactive
9,CCc1ccc(NC(=O)COc2ccc(F)cc2C(=O)c2cnn(-c3ccccc3)c2)cc1,"inconclusive [activator, partial curve, poor fit]"
10,S=c1[nH]nc(-c2cc(-c3ccccc3)n[nH]2)n1/N=C/c1ccc(Cl)c(Cl)c1,"inconclusive [activator, partial curve, poor fit]"
11,O=C(Nc1nc2c(Cl)cccc2s1)c1ccc([N+](=O)[O-])o1,"inconclusive [activator, partial curve, poor fit]"
12,c1cc2c(cc1-c1csc(NNC3=NCCCCC3)n1)OCCO2,"inconclusive [activator, partial curve, poor fit]"
13,COc1ccc(CCN(C)C(=O)c2ccc(C)c(S(=O)(=O)N3CCCCC3)c2)cc1OC,inactive
14,CC1=NN(c2ccc(S(=O)(=O)O)cc2C)C(=O)C1,inactive
15,CS(=O)(=O)c1ccc2nc(NC(=O)c3ccccc3Cl)sc2c1,"inconclusive [activator, partial curve, poor fit]"
16,Cc1ccc(Nc2nc3ccccc3n3cnnc23)cc1Cl,inactive
17,CCC(=O)c1ccc(OCc2ccc(C#N)cc2)cc1,"inconclusive [activator, single point]"
18,COc1cccc(NC(=S)NC(=O)/C=C/c2ccco2)c1,"inconclusive [activator, single point]"
19,COc1ccc(NC(=O)CCCN2C(=O)/C(=C\c3ccco3)SC2=S)cc1,"inconclusive [activator, single point]"
20,Cc1cc(F)ccc1NC(=O)Nc1ccc2c(c1)OCO2,"inconclusive [activator, partial curve, poor fit]"
21,COCC(C)NC(=O)c1noc2c1CCc1cc(OC)ccc1-2 (stereo not drawn),"inconclusive [activator, partial curve, poor fit]"
22,O=C1c2ccccc2C(=O)C1c1ccncc1,"inconclusive [activator, partial curve, poor fit]"
23,CCN1CCN(CCCNC(=O)c2cc3c(=O)[nH]c4ccccc4c3s2)CC1,inactive

row,Compound,Potency
1,CC1(C)CC2CC(C)(CN2C(=O)COC(=O)c2cc(Cl)cc(Cl)c2N)C1 (stereo not drawn),inactive
2,COc1ccccc1/C(C)=N/Oc1cc(N)cc([N+](=O)[O-])c1,"inconclusive [activator, full curve, poor fit]"
3,O=C(NN=C1CCN(Cc2ccccc2)CC1)c1cc2ccccc2cc1O,"inconclusive [activator, partial curve, poor fit]"
4,Cc1ccc2nc(-c3ccc(NC(=O)COC(=O)c4ccc(=O)[nH]c4)cc3)sc2c1,"inconclusive [activator, full curve, poor fit]"
5,O=C(NCc1ccccc1)C(=O)NCC1COc2ccccc2O1 (stereo not drawn),inactive
6,CC(=O)c1sc(Nc2nc3ccc(F)cc3s2)nc1C,"inconclusive [activator, partial curve, poor fit]"
7,Cc1cccc(-n2cnc(C(=O)Nc3cccnc3)c2)n1,"inconclusive [activator, partial curve, poor fit]"
8,Oc1c(Cl)cc(Cl)c2cccnc12,"inconclusive [activator, single point]"
9,CC(C)CCSc1nc(N2CCOCC2)c2c(c1C#N)CC(C)(C)OC2,"inconclusive [activator, single point]"
10,CCc1ccc(NC(=O)CN2CCCN(S(=O)(=O)c3ccc(F)cc3)CC2)cc1,inactive
11,Cc1ccc(-c2cc3onc(-c4ccccc4)c3c(=O)n2C)cc1,"inconclusive [activator, full curve, poor fit]"
12,CN(Cc1ccccc1)S(=O)(=O)c1ccccc1[N+](=O)[O-],inactive
13,COc1ccc(N2C(=S)NC3N2C(=S)NC3(C)c2ccccc2)cc1 (stereo not drawn),"inconclusive [activator, partial curve, poor fit]"
14,O=C1/C(=C/c2cccnc2)SC(=S)N1CCc1ccccc1,"inconclusive [activator, single point]"
15,COc1ccc(-c2cc(C(=O)NC(C)C)no2)cc1,"inconclusive [activator, full curve, poor fit]"
16,CN(C(=O)c1ccccc1)c1nc2ccccc2s1,"inconclusive [activator, partial curve, poor fit]"
17,COc1ccccc1/C=C/CN1CCCC(CO)(CCc2ccccc2)C1 (stereo not drawn),inactive
18,CCN1CCN(C(CNS(=O)(=O)c2ccc(C)cc2)c2cccnc2)CC1 (stereo not drawn),"inconclusive [activator, single point]"
19,CCOC(=S)SCC(=O)Nc1ncc(C)s1,"inconclusive [activator, single point]"
20,CCN(C[C@H]1N[C@@](Cc2ccccc2)(C(=O)OC)[C@H]2C(=O)N(C)C(=O)[C@@H]12)S(=O)(=O)c1ccc(C(C)(C)C)cc1,inactive
21,COc1ccc(NC(=O)c2cccc(NC(=O)C(C)C)c2)c([N+](=O)[O-])c1,"inconclusive [activator, partial curve, poor fit]"
22,Cc1ccc(NC(=O)CSc2ccc(C(N)=O)cc2[N+](=O)[O-])cc1,"inconclusive [activator, full curve, poor fit]"
